# Data: the supplement of paper PMC8728848
# The other results are listed elsewhere or left out.
# B1: Gal 3 (Homo sapiens), P17931 (protein)
# chain: MADNFSLHDALSGSGNPNPQGWPGAWGNQPAGAGGYPGASYPGAYPGQAPPGAYPGQAPPGAYHGAPGAYPGAPAPGVYPGPPSGPGAYPSSGQPSAPGAYPATGPYGAPAGPLIVPYNLPLPGGVVPRMLITILGTVKPNANILDFQRGNDVAFHFNPRFNENNRRVIVCNTKLDNNWAREERQSVFPFESGKPFKIQVLVEPDHFKVAVNDAHLLQYNHRVKKLNEISKLGISGDIDLTSASYTMI
# How the values were obtained:
# Assay in all cases: glycan array binding signal (z-score within array); higher = stronger binding
# Conditions in all cases: glycan notation: IUPAC condensed, linker removed; mutation: G182A
# Fuc(a1-2)Gal = molecular target: Fuc(a1-2)Gal
# Outline: (§1)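 The binding signal is a Z-score computed within each array and averaged over linkers. Arrays of the same protein sequence at different concentrations or buffers were also averaged together. Data originate from 3228 arrays in the Consortium for Functional Glycomics database, kept only where the protein sequence was available.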
# Fuc(a1-2)Gal(b1-3)GalNAc = molecular target: Fuc(a1-2)Gal(b1-3)GalNAc
# Outline: as §1
# [1] = molecular target: Fuc(a1-2)Gal(b1-3)GalNAc(a1-3)[Fuc(a1-2)]Gal(b1-4)Glc
# Outline: as §1
# [2] = molecular target: Fuc(a1-2)Gal(b1-3)GalNAc(a1-3)[Fuc(a1-2)]Gal(b1-4)GlcNAc
# Outline: as §1
# [3] = molecular target: Fuc(a1-2)Gal(b1-3)GalNAc(b1-3)Gal
# Outline: as §1
# [4] = molecular target: Fuc(a1-2)Gal(b1-3)GalNAc(b1-3)Gal(a1-4)Gal(b1-4)Glc
# Outline: as §1
# [5] = molecular target: Fuc(a1-2)Gal(b1-3)GalNAc(b1-4)[Neu5Ac(a2-3)]Gal(b1-4)Glc
# Outline: as §1
# Fuc(a1-2)Gal(b1-3)GlcNAc = molecular target: Fuc(a1-2)Gal(b1-3)GlcNAc
# Outline: as §1
# [6] = molecular target: Fuc(a1-2)Gal(b1-3)GlcNAc(b1-2)Man(a1-3)[Fuc(a1-2)Gal(b1-3)GlcNAc(b1-2)Man(a1-6)]Man(b1-4)GlcNAc(b1-4)GlcNAc
# Outline: as §1
# [7] = molecular target: Fuc(a1-2)Gal(b1-3)GlcNAc(b1-3)Gal(b1-4)Glc
# Outline: as §1
# [8] = molecular target: Fuc(a1-2)Gal(b1-3)GlcNAc(b1-3)[Fuc(a1-3)[Gal(b1-4)]GlcNAc(b1-6)]Gal(b1-4)Glc
# Outline: as §1
# [9] = molecular target: Fuc(a1-2)Gal(b1-3)[Fuc(a1-4)]GlcNAc
# Outline: as §1
# [10] = molecular target: Fuc(a1-2)Gal(b1-3)[Fuc(a1-4)]GlcNAc(b1-2)Man(a1-3)[Fuc(a1-2)Gal(b1-3)[Fuc(a1-4)]GlcNAc(b1-2)Man(a1-6)]Man(b1-4)GlcNAc(b1-4)GlcNAc
# Outline: as §1
# [11] = molecular target: Fuc(a1-2)Gal(b1-3)[Fuc(a1-4)]GlcNAc(b1-3)[Fuc(a1-3)[Gal(b1-4)]GlcNAc(b1-6)]Gal(b1-4)Glc
# Outline: as §1
# [12] = molecular target: Fuc(a1-2)Gal(b1-3)[Fuc(a1-4)]GlcNAc(b1-3)[Gal(b1-4)GlcNAc(b1-6)]Gal(b1-4)Glc
# Outline: as §1
# Fuc(a1-2)Gal(b1-4)Glc = molecular target: Fuc(a1-2)Gal(b1-4)Glc
# Outline: as §1
# Fuc(a1-2)Gal(b1-4)Glc6S = molecular target: Fuc(a1-2)Gal(b1-4)Glc6S
# Outline: as §1
# Fuc(a1-2)Gal(b1-4)GlcNAc = molecular target: Fuc(a1-2)Gal(b1-4)GlcNAc
# Outline: as §1
# [13] = molecular target: Fuc(a1-2)Gal(b1-4)GlcNAc(b1-2)Man(a1-3)[Fuc(a1-2)Gal(b1-4)GlcNAc(b1-2)Man(a1-6)]Man(b1-4)GlcNAc(b1-4)GlcNAc
# Outline: as §1
# [14] = molecular target: Fuc(a1-2)Gal(b1-4)GlcNAc(b1-3)Gal(b1-4)GlcNAc
# Outline: as §1
# [15] = molecular target: Fuc(a1-2)Gal(b1-4)GlcNAc(b1-3)Gal(b1-4)GlcNAc(b1-3)Gal(b1-4)GlcNAc
# Outline: as §1
# [16] = molecular target: Fuc(a1-2)Gal(b1-4)GlcNAc(b1-3)GalNAc
# Outline: as §1
# [17] = molecular target: Fuc(a1-2)Gal(b1-4)GlcNAc6S
# Outline: as §1
# [18] = molecular target: Fuc(a1-2)Gal(b1-4)[Fuc(a1-3)]GlcNAc
# Outline: as §1
# [19] = molecular target: Fuc(a1-2)Gal(b1-4)[Fuc(a1-3)]GlcNAc(b1-2)Man(a1-3)[Fuc(a1-2)Gal(b1-4)[Fuc(a1-3)]GlcNAc(b1-2)Man(a1-6)]Man(b1-4)GlcNAc(b1-4)GlcNAc
# Outline: as §1
# [20] = molecular target: Fuc(a1-2)Gal(b1-4)[Fuc(a1-3)]GlcNAc(b1-3)Gal(b1-4)[Fuc(a1-3)]GlcNAc
# Outline: as §1
# [21] = molecular target: Fuc(a1-2)Gal(b1-4)[Fuc(a1-3)]GlcNAc(b1-3)Gal(b1-4)[Fuc(a1-3)]GlcNAc(b1-3)Gal(b1-4)[Fuc(a1-3)]GlcNAc
# Outline: as §1
# Fuc(a1-2)Gal6S(b1-4)Glc = molecular target: Fuc(a1-2)Gal6S(b1-4)Glc
# Outline: as §1
# [22] = molecular target: Fuc(a1-2)Gal6S(b1-4)Glc6S
# Outline: as §1
# [23] = molecular target: Fuc(a1-2)Gal6S(b1-4)GlcNAc
# Outline: as §1
# Fuc(a1-2)[Gal(a1-3)]Gal = molecular target: Fuc(a1-2)[Gal(a1-3)]Gal
# Outline: as §1
# [24] = molecular target: Fuc(a1-2)[Gal(a1-3)]Gal(b1-3)GlcNAc
# Outline: as §1
# [25] = molecular target: Fuc(a1-2)[Gal(a1-3)]Gal(b1-3)GlcNAc(b1-2)Man(a1-3)[Fuc(a1-2)[Gal(a1-3)]Gal(b1-3)GlcNAc(b1-2)Man(a1-6)]Man(b1-4)GlcNAc(b1-4)GlcNAc
# Outline: as §1
# [26] = molecular target: Fuc(a1-2)[Gal(a1-3)]Gal(b1-4)Glc
# Outline: as §1
# [27] = molecular target: Fuc(a1-2)[Gal(a1-3)]Gal(b1-4)GlcNAc
# Outline: as §1
# [28] = molecular target: Fuc(a1-2)[Gal(a1-3)]Gal(b1-4)GlcNAc(b1-2)Man(a1-3)[Fuc(a1-2)[Gal(a1-3)]Gal(b1-4)GlcNAc(b1-2)Man(a1-6)]Man(b1-4)GlcNAc(b1-4)GlcNAc
# Outline: as §1
# [29] = molecular target: Fuc(a1-2)[Gal(a1-3)]Gal(b1-4)[Fuc(a1-3)]GlcNAc
# Outline: as §1
# [30] = molecular target: Fuc(a1-2)[Gal(a1-4)]Gal(b1-4)GlcNAc
# Outline: as §1
# [31] = molecular target: Fuc(a1-2)[GalNAc(a1-3)]Gal
# Outline: as §1
# [32] = molecular target: Fuc(a1-2)[GalNAc(a1-3)]Gal(b1-3)GalNAc(a1-3)[Fuc(a1-2)]Gal(b1-4)GlcNAc
# Outline: as §1
# [33] = molecular target: Fuc(a1-2)[GalNAc(a1-3)]Gal(b1-3)GlcNAc
# Outline: as §1
# [34] = molecular target: Fuc(a1-2)[GalNAc(a1-3)]Gal(b1-3)GlcNAc(b1-2)Man(a1-3)[Fuc(a1-2)[GalNAc(a1-3)]Gal(b1-3)GlcNAc(b1-2)Man(a1-6)]Man(b1-4)GlcNAc(b1-4)GlcNAc
# Outline: as §1
# [35] = molecular target: Fuc(a1-2)[GalNAc(a1-3)]Gal(b1-4)Glc
# Outline: as §1
# [36] = molecular target: Fuc(a1-2)[GalNAc(a1-3)]Gal(b1-4)GlcNAc
# Outline: as §1
# [37] = molecular target: Fuc(a1-2)[GalNAc(a1-3)]Gal(b1-4)GlcNAc(b1-2)Man(a1-3)[Fuc(a1-2)[GalNAc(a1-3)]Gal(b1-4)GlcNAc(b1-2)Man(a1-6)]Man(b1-4)GlcNAc(b1-4)GlcNAc
# Outline: as §1
# [38] = molecular target: Fuc(a1-2)[GalNAc(a1-3)]Gal(b1-4)GlcNAc(b1-3)Gal(b1-4)GlcNAc
# Outline: as §1
# [39] = molecular target: Fuc(a1-2)[GalNAc(a1-3)]Gal(b1-4)GlcNAc(b1-3)Gal(b1-4)GlcNAc(b1-3)Gal(b1-4)GlcNAc
# Outline: as §1
# [40] = molecular target: Fuc(a1-2)[GalNAc(a1-3)]Gal(b1-4)[Fuc(a1-3)]GlcNAc
# Outline: as §1
# [41] = molecular target: Fuc(a1-2)[GalNAc(a1-4)]Gal(b1-4)GlcNAc
# Outline: as §1
# [42] = molecular target: Fuc(a1-2)[GalNAc(b1-3)]Gal
# Outline: as §1
# Fuc(a1-3)GlcNAc = molecular target: Fuc(a1-3)GlcNAc
# Outline: as §1
# [43] = molecular target: Fuc(a1-3)[Gal(b1-4)]Glc6S
# Outline: as §1
# [44] = molecular target: Fuc(a1-3)[Gal(b1-4)]GlcNAc
# Outline: as §1
# [45] = molecular target: Fuc(a1-3)[Gal(b1-4)]GlcNAc(b1-2)Man(a1-3)[Fuc(a1-3)[Gal(b1-4)]GlcNAc(b1-2)Man(a1-6)]Man(b1-4)GlcNAc(b1-4)GlcNAc
# Outline: as §1
# [46] = molecular target: Fuc(a1-3)[Gal(b1-4)]GlcNAc(b1-3)Gal(b1-3)[Fuc(a1-4)]GlcNAc
# Outline: as §1
# [47] = molecular target: Fuc(a1-3)[Gal(b1-4)]GlcNAc(b1-3)GalNAc
# Outline: as §1
# [48] = molecular target: Fuc(a1-3)[Gal(b1-4)]GlcNAc(b1-4)Gal(b1-4)[Fuc(a1-3)]GlcNAc
# Outline: as §1
# [49] = molecular target: Fuc(a1-3)[Gal(b1-4)]GlcNAc(b1-4)Gal(b1-4)[Fuc(a1-3)]GlcNAc(b1-4)Gal(b1-4)[Fuc(a1-3)]GlcNAc
# Outline: as §1
# [50] = molecular target: Fuc(a1-3)[Gal(b1-4)]GlcNAc(b1-6)[Gal(b1-3)GlcNAc(b1-3)]Gal(b1-4)Glc
# Outline: as §1
# [51] = molecular target: Fuc(a1-3)[Gal(b1-4)]GlcNAc6S
# Outline: as §1
binder,measurement,setting,value
B1,glycan array binding signal (z-score),Fuc(a1-2)Gal,-0.196
same,glycan array binding signal (z-score),Fuc(a1-2)Gal(b1-3)GalNAc,-0.185
same,glycan array binding signal (z-score),[1],-0.176
same,glycan array binding signal (z-score),[2],-0.19
same,glycan array binding signal (z-score),[3],-0.176
same,glycan array binding signal (z-score),[4],-0.17
same,glycan array binding signal (z-score),[5],-0.193
same,glycan array binding signal (z-score),Fuc(a1-2)Gal(b1-3)GlcNAc,-0.14
same,glycan array binding signal (z-score),[6],-0.192
same,glycan array binding signal (z-score),[7],-0.128
same,glycan array binding signal (z-score),[8],-0.173
same,glycan array binding signal (z-score),[9],-0.191
same,glycan array binding signal (z-score),[10],-0.144
same,glycan array binding signal (z-score),[11],-0.19
same,glycan array binding signal (z-score),[12],-0.192
same,glycan array binding signal (z-score),Fuc(a1-2)Gal(b1-4)Glc,-0.178
same,glycan array binding signal (z-score),Fuc(a1-2)Gal(b1-4)Glc6S,-0.164
same,glycan array binding signal (z-score),Fuc(a1-2)Gal(b1-4)GlcNAc,-0.188
same,glycan array binding signal (z-score),[13],-0.16
same,glycan array binding signal (z-score),[14],0.712
same,glycan array binding signal (z-score),[15],5.12
same,glycan array binding signal (z-score),[16],-0.187
same,glycan array binding signal (z-score),[17],-0.165
same,glycan array binding signal (z-score),[18],-0.182
same,glycan array binding signal (z-score),[19],-0.186
same,glycan array binding signal (z-score),[20],-0.141
same,glycan array binding signal (z-score),[21],-0.184
same,glycan array binding signal (z-score),Fuc(a1-2)Gal6S(b1-4)Glc,-0.169
same,glycan array binding signal (z-score),[22],-0.19
same,glycan array binding signal (z-score),[23],-0.19
same,glycan array binding signal (z-score),Fuc(a1-2)[Gal(a1-3)]Gal,-0.187
same,glycan array binding signal (z-score),[24],-0.036
same,glycan array binding signal (z-score),[25],0.63
same,glycan array binding signal (z-score),[26],-0.156
same,glycan array binding signal (z-score),[27],1.68
same,glycan array binding signal (z-score),[28],9.17
same,glycan array binding signal (z-score),[29],-0.159
same,glycan array binding signal (z-score),[30],-0.192
same,glycan array binding signal (z-score),[31],-0.182
same,glycan array binding signal (z-score),[32],-0.189
same,glycan array binding signal (z-score),[33],-0.174
same,glycan array binding signal (z-score),[34],-0.162
same,glycan array binding signal (z-score),[35],-0.182
same,glycan array binding signal (z-score),[36],0.028
same,glycan array binding signal (z-score),[37],5.25
same,glycan array binding signal (z-score),[38],2.87
same,glycan array binding signal (z-score),[39],6.29
same,glycan array binding signal (z-score),[40],-0.178
same,glycan array binding signal (z-score),[41],-0.169
same,glycan array binding signal (z-score),[42],-0.155
same,glycan array binding signal (z-score),Fuc(a1-3)GlcNAc,-0.173
same,glycan array binding signal (z-score),[43],-0.19
same,glycan array binding signal (z-score),[44],-0.185
same,glycan array binding signal (z-score),[45],-0.191
same,glycan array binding signal (z-score),[46],-0.188
same,glycan array binding signal (z-score),[47],-0.146
same,glycan array binding signal (z-score),[48],-0.151
same,glycan array binding signal (z-score),[49],-0.196
same,glycan array binding signal (z-score),[50],-0.187
same,glycan array binding signal (z-score),[51],-0.188
